Reference: PubChem BioAssay (NCATS)
“And” between values parts separate entries of the source, which are not always exact repeats. Equal values may be shown once. This list was built around the results that the source calls inconclusive (neither active nor inactive); the mix of calls is not that of the screen. For some assays here: No potency is given beside an inconclusive call; the fits are too rough. For some assays here: A note “side channel” means that the fit belongs to a control or component signal, not to the main read-out. The source made the active and inactive calls. Unless noted, calls follow the shape of the dose curve; as a rule, active = well fitted curve in the direction sought with a large enough effect; inconclusive = small, poorly fitted or top-dose-only effect, or another doubt; inactive = no such curve, though single readings can be large; an effect the other way counts as inactive or inconclusive.

Key:
[1] = AP1 Signaling Pathway (AID 357; active = well fitted curve in either direction with a large enough effect, not every such curve was filed as active; inconclusive = small, poorly fitted or top-dose-only effect, or another doubt;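 also: ME-180 reporter cells stimulated with EGF at its EC50 level; top concentration of the series differs between compounds; % is scaled to controls: 0 for no effect and ±100 for the full control effect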); details: ME-180 AP-1-bla reporter, EGF-induced, beta-lactamase ratio, 5 h; at 7.69 µM (top of the series) unless noted
In short: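 AP-1-bla ME-180 cells, Opti-MEM + 0.5% dialyzed FBS, plated overnight 37 °C. Cpd titration + EC50 EGF, 5 h 37 °C. CCF4 2.5 h RT; ex 405, em 460/530 ratio → %activity, AC50.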

[2] = target: Cytochrome P450 1A2 (Homo sapiens) (UniProt P05177); assay: p450-cyp1a2 (AID 410; calls by dose curve; also: potency is read from the fitted curve at half-maximal effect)
Sequence of UniProt P05177 (P05177 whole entry, looked up): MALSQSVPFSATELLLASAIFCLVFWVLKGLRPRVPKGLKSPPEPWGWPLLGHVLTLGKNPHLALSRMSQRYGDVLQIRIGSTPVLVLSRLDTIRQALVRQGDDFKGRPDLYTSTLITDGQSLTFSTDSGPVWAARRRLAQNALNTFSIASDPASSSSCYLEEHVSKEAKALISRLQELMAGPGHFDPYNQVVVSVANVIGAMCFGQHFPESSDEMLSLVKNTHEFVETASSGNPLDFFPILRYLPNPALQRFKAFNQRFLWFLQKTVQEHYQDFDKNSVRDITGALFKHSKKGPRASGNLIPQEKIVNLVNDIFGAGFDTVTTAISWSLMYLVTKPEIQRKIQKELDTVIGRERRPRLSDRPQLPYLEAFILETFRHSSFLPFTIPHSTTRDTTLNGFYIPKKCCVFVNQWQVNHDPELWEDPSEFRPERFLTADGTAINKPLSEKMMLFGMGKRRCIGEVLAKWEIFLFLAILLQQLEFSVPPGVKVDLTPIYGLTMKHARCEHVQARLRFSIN
In short: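 Luminescent demethylation readout: Luciferin-ME (100uM, equal to Km) turned over by 20nM CYP1A2 for 60 min at room temperature after NADPH regeneration addition, following 10 min compound preincubation. Normalization used 57 uM furafylline as full inhibition.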

[3] = target: 3',5'-cyclic-AMP phosphodiesterase 4B (Homo sapiens) (UniProt Q07343); assay: qHTS Assay for Inhibitors of PDE-IV (AID 607; active = well fitted activation curve with a large enough effect in the main read-out, with a control signal flat, not every such curve was filed as active; inconclusive = small, poorly fitted or top-dose-only effect, or effect the other way, or a change in a side signal; also: potency is read from the fitted curve at half-maximal effect); details: HEK293 ACTOne CNG channel cells, membrane potential fluorescence; activation (PDE inhibition): at 22.9 µM (top of the series)
Sequence of UniProt Q07343 (Q07343 whole entry, looked up): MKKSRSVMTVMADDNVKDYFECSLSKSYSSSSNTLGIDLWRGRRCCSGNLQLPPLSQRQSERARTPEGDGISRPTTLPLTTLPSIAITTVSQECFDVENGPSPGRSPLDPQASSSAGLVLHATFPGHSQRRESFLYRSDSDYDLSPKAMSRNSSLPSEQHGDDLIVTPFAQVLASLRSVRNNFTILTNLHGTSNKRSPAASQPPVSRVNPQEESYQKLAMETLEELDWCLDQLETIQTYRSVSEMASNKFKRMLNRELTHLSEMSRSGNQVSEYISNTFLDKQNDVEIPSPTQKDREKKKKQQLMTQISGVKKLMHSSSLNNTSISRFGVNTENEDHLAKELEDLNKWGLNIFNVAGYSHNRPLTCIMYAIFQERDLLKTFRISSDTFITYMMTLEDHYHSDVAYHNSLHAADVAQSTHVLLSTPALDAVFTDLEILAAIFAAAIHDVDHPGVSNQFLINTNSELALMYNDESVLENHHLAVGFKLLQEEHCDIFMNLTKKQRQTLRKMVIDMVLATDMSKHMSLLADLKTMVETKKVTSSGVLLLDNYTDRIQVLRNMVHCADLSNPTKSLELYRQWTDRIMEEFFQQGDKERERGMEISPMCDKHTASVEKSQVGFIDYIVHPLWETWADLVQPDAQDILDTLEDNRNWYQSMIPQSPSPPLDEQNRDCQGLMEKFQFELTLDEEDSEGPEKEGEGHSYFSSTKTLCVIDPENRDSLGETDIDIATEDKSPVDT
In short: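 HEK293 ACTOne cells with CNG channel (1000/well), endogenous PDE4; membrane potential dye, compounds up to 22.9 uM final. Fluorescence Ex 535/Em 590; RO 20-1724 (100 uM final) as reference.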

[4] = target: Cytochrome P450 2C9 (Homo sapiens) (UniProt P11712); assay: qHTS Assay for Inhibitors and Substrates of Cytochrome P450 2C9 (AID 883); also: potency is read from the fitted curve at half-maximal effect; nearly all actives have a fitted effect of over 60% in size
Sequence of UniProt P11712 (P11712 whole entry, looked up): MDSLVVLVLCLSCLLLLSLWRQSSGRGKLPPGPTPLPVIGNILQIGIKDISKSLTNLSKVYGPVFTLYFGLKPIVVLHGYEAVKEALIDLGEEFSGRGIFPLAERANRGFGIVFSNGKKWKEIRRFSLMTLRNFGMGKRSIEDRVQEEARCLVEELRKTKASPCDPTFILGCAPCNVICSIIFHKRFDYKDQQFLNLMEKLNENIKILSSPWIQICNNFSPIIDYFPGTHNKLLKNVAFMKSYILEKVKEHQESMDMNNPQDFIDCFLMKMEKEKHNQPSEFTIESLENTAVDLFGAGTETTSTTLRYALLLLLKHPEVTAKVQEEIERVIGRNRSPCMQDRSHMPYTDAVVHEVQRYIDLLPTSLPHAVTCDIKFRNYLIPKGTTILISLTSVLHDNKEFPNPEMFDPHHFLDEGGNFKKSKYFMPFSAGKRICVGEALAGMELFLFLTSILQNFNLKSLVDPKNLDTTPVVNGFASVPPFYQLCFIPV
In short: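 Inhibition of CYP2C9 is scored as loss of luminescence, with 57uM sulphaphenazole defining 100% inhibition. Substrate Luciferin-H is used at 100uM, equal to its KM; enzyme at 10nM in 25mM KPO4, 60 min at 37C with NADPH regeneration.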

[5] = qHTS Assay for Identification of Small Molecule Agonists for Hypoxia Response Element Signaling Pathway (AID 914; active = well fitted activation curve with a large enough effect in the signal ratio, with a control signal flat, not every such curve was filed as active; inconclusive = small, poorly fitted or top-dose-only effect, or effect the other way, or a change in a side signal; the % refers to the signal ratio; also: potency is read from the fitted curve at half-maximal effect; as to activation: top concentration of the series differs between compounds; % of control where 0% means no effect); details: ME-180 HRE-bla reporter, beta-lactamase ratio, CoCl2, 17 h; activation: stronger effect = higher value
In short: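 HRE-bla ME-180 assay for agonist-like enhancement of an EC50 CoCl2 stimulus: 17 h at 37 degrees Celsius, CCF4 for 2.5 h, ratiometric 460/530 nm signal converted to %Activity and fitted to AC50.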

[6] = qHTS Assay for Lipid Storage Modulators (AID 1519; calls by dose curve; also: % is scaled to controls: 0 for no effect and ±100 for the full control effect); details: Drosophila S3 cells, BODIPY lipid droplet/cell ratio, laser cytometry, cells loaded with oleic acid; activity change, negative = inhibition: at 57.5 µM (top of the series) unless noted
In short: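 Cells seeded at 5,000 per well were treated with compounds over a concentration series and loaded with oleic acid (400 uM, as added). Lipid droplet fluorescence (488 nm excitation, 500-530 nm channel) was read by laser-scanning cytometry and normalized to 20 uM Triacsin C.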

[7] = Primary qHTS for small molecule stabilizers of the endoplasmic reticulum resident proteome: Secreted ER Calcium Modulated Protein (SERCaMP) assay (AID 1508630); details: SH-SY5Y GLuc-SERCaMP (Gaussia luciferase released on ER calcium loss) secretion, thapsigargin, luminescence; activity change, negative = inhibition: at 38.4 µM (top of the series) unless noted; also: potency is read from the fitted curve at half-maximal effect
In short: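 The SH-SY5Y reporter protocol was run at 3 concentrations up to 38.3 uM (primary) or 11 concentrations (follow-up): 16 h compound, 100 nM thapsigargin for 4 h, then extracellular luciferase luminescence.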

[8] = target: Dual specificity protein kinase CLK4 (Homo sapiens) (UniProt Q9HAZ1); assay: qHTS Assay for Inhibitors of CDC-like Kinase 4 (ADP-FP Assay) (AID 1795);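 also: recombinant human CLK4 phosphorylating RS repeat peptide at 1 µM ATP; potency is read from the fitted curve at half-maximal effect; nearly all actives have a fitted effect of over 60% in size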
Sequence of UniProt Q9HAZ1 (Q9HAZ1 whole entry, looked up): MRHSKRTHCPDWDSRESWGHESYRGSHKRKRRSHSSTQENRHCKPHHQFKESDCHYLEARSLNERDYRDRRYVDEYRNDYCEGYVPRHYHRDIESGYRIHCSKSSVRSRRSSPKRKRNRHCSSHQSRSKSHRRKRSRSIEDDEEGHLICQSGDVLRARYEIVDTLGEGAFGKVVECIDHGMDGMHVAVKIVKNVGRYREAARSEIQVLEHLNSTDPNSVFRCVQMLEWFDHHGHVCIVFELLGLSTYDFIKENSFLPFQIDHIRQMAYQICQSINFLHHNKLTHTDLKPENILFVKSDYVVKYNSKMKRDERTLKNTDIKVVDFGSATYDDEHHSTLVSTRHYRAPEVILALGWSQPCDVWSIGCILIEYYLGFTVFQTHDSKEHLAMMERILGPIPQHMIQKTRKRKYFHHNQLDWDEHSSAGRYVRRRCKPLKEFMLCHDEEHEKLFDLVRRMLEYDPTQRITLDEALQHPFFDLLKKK
In short: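 Kinase activity was measured as ADP production using Transcreener orange tracer (4 nM) and ADP antibody (1 ug/mL) fluorescence polarization, with ADP calculated from a calibration curve. The 1 h reaction contained 6.25 nM Clk4, 1 uM ATP and 100 uM RS peptide at pH 7.5 with Mg2+.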

[9] = target: Mitogen-activated protein kinase 10 (Mus musculus) (UniProt Q61831); assay: JNK3 AlphaScreen Assay (AID 530; active = well fitted curve in either direction with a large enough effect, not every such curve was filed as active; inconclusive = small, poorly fitted or top-dose-only effect, or another doubt;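 also: kinase came from lysate of stimulated human HepG2 cells; signal reports phosphorylation of biotinylated GST-cJun 1-79 at Ser73 with 10 µM ATP; potency is read from the fitted curve at half-maximal effect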); details: JNK3 lysate, c-Jun phosphorylation; activity change, negative = inhibition: at 57.1 µM (top of the series)
In short: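 qHTS titrations with 15 min compound pre-incubation before adding ATP (10 uM final). Read-out: AlphaScreen of Ser73-phosphorylated biotin-GST-cJun using HepG2 lysate JNK3 activated by IL-1β and TNFα.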

[10] = qHTS Assay for Identification of Small Molecule Agonists for Thrombopoietin (TPO) Signaling Pathway (AID 917); also: % is scaled to controls: 0 for no effect and ±100 for the full control effect
In short: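 Luciferase reporter (Glycoprotein IIb promoter) in IL-3-deprived Ba/F3 cells carrying human TPO receptor; compounds co-added with 26 pM TPO, incubated 24 h, 37 C. Steadylite luminescence measured after 10 min.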

[11] = qHTS Assay for Identification of Small Molecule Antagonists for Thrombopoietin (TPO) Signaling Pathway (AID 918); details: TPO-dependent cell signaling reporter, antagonist mode; activity change, negative = inhibition: at 38.5 µM (top of the series); also: nearly all actives have a fitted effect of over 60% in size
In short: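 Inhibition read as reduced luciferase luminescence after 24 h at 37 C in IL-3-deprived Ba/F3 cells carrying human TPO receptor and GPIIb-promoter reporter, stimulated with 26 pM TPO (final, its EC50) alongside compound.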

[12] = target: Muscarinic acetylcholine receptor M1 (Rattus norvegicus) (UniProt P08482); assay: qHTS Assay for Antagonists of Acetylcholine Muscarinic M1 Receptor: Measurement of IP-One Response (AID 944); also: potency is read from the fitted curve at half-maximal effect; nearly all actives have a fitted effect of over 75% in size
Sequence of UniProt P08482 (P08482 whole entry, looked up): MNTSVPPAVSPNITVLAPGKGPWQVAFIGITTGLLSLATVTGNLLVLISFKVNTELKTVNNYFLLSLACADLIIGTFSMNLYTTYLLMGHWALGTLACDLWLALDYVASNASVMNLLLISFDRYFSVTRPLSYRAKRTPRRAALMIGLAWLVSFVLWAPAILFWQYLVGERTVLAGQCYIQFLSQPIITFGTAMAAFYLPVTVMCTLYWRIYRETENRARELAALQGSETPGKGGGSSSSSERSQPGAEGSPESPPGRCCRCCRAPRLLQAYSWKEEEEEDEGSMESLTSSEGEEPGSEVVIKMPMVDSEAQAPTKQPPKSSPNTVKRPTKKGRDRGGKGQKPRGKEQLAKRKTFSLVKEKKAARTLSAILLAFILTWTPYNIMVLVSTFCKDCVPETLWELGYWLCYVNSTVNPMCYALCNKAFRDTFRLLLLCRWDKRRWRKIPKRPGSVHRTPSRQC

[13] = qHTS for differential inhibitors of proliferation of Plasmodium falciparum line Dd2 (AID 1882); details: Potency: Plasmodium falciparum Dd2 proliferation inhibition;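 also: plate controls were DMSO vehicle for no effect and 0.29 µM artemisinin for full effect; nearly all actives have a fitted effect of over 65% in size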
In short: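 SYBR Green DNA fluorescence (ex 485, em 535 nm) after overnight lysis quantifies parasite growth; compound exposure lasted 72 h at 37 C on infected red cells at 2.5% hematocrit, 0.3% parasitemia (final). Artemisinin 0.29 uM and vehicle wells define normalization.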

[14] = qHTS for differential inhibitors of proliferation of Plasmodium falciparum line HB3 (AID 1886); details: Potency: Plasmodium falciparum HB3 proliferation inhibition;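 also: potency is read from the fitted curve at half-maximal effect; parasites grown with compound for 72 h before SYBR Green readout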
[15] = Quantitative high throughput screen for delayed death inhibitors of the malarial parasite plastid, 48 hour incubation (AID 488752); also: potency is read from the fitted curve at half-maximal effect; nearly all actives have a fitted effect of over 65% in size
In short: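 One-generation (48 h) growth assay: a decrease in luciferase signal from an integrated reporter in P. falciparum-infected red cells (0.1% parasitemia, 2% hematocrit) after compound exposure at 37 C indicates parasite inhibition.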

[16] = target: Ubiquitin carboxyl-terminal hydrolase 1 (Homo sapiens) (UniProt O94782); assay: Inhibitors of USP1/UAF1: Pilot qHTS (AID 504865);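 also: rhodamine fluorescence freed from ubiquitin-rhodamine substrate followed over time; potency is read from the fitted curve at half-maximal effect; nearly all actives have a fitted effect of over 35% in size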
Sequence of UniProt O94782 (O94782 whole entry, looked up): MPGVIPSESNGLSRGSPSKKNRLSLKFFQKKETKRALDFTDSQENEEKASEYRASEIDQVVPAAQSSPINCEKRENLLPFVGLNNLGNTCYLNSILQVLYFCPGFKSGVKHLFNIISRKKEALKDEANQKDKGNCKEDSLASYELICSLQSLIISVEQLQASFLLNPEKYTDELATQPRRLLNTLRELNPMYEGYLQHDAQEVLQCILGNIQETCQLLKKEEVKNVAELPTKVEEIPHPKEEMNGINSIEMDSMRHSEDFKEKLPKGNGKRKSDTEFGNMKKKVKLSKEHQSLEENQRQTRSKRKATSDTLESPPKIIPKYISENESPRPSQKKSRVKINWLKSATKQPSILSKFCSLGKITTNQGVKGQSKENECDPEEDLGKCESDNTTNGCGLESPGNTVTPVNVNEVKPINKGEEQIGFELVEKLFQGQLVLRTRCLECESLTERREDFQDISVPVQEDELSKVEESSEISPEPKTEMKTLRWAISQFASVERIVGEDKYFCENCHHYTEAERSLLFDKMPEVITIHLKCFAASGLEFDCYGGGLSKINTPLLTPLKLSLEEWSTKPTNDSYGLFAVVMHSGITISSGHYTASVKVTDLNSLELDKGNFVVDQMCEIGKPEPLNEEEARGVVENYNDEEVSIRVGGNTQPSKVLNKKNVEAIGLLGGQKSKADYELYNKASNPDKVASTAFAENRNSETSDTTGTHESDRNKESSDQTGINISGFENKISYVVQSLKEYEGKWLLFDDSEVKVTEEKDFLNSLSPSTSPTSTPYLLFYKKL
In short: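 Deubiquitinase activity followed as kinetic rhodamine fluorescence release from 150 nM Ub-Rho. 1 nM USP1/UAF1 with compound, after 15 min room-temperature preincubation, in HEPES pH 7.8 buffer containing TCEP, EDTA, BSA and Tween-20.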

[17] = NFAT Signaling Pathway (AID 444; active = well fitted curve in either direction with a large enough effect, not every such curve was filed as active; inconclusive = small, poorly fitted or top-dose-only effect, or another doubt;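 also: carbachol stimulus at about its EC50 of 1 µM final; % is scaled to controls: 0 for no effect and ±100 for the full control effect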); details: Jurkat NFAT-bla M1, carbachol, beta-lactamase ratio, 5 h; at 7.69 µM (top of the series) unless noted
In short: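 Read-out: CCF4 FRET ratio (460 nm/530 nm) after 1 h RT dye loading, used for %activity and AC50 from titration series. Cells: Jurkat NFAT-β-lactamase/M1 line, treated with compound plus 1 uM carbachol for 5 h, 37 °C.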

[18] = Confirmation and Secondary Assay for Modulators of Hemoglobin Beta Chain Splicing at IVS2 654 locus (AID 910);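 also: HeLa cells stably carrying EGFP split by mutant beta-globin IVS2-654 intron; per-well total GFP intensity by laser scanning cytometry after 2-day treatment; potency is read from the fitted curve at half-maximal effect; potency of activators that raise GFP signal by restoring correct splicing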
In short: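 Readout: per-well total peak green fluorescence (488 nm ex, 500–520 nm em) from objects 5–250 µm, reflecting correct splicing of an EGFP-654 reporter. Compounds were applied for 2 days at 37 °C to overnight-plated HeLa EGFP-654 cells; controls were DMSO and 500 nM IVS2-654 PNA.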

[19] = Stat Signaling Pathway (AID 446; active = well fitted curve in either direction with a large enough effect, not every such curve was filed as active; inconclusive = small, poorly fitted or top-dose-only effect, or another doubt); details: ME-180 (cervical carcinoma) SIE beta-lactamase reporter, IL-6 stimulated, 5 h; at 7.69 µM (top of the series) unless noted
In short: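 Normalization used AC90 stimulation (300 pM IL-6) and AC90 inhibition (125 nM pan-JAK inhibitor at 40 pM IL-6). The underlying signal is SIE-driven beta-lactamase in ME-180 cells after 5 h IL-6 exposure with compound.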
Tags tell the direction and shape of the fitted curve or compound fluorescence and quenching.

Q: For `COc1ccccc1CNc1ncnc2ccc(-c3cccc(NS(C)(=O)=O)c3)cc12`, which activity change, negative = inhibition [1] is on record?
A: Its activity change, negative = inhibition is inconclusive: -50.1% [inhibitor].

Q: And the Potency [2]?
A: Its Potency is active: 3.98 µM.

Q: And the Potency [3]?
A: The Potency was inconclusive [activator, partial curve].

Q: What about the Potency [4] of the same compound?
A: Its Potency is inconclusive [inhibitor, partial curve].

Q: And the Potency [5]?
A: The Potency was inconclusive [inhibitor, partial curve].

Q: What about the activity change, negative = inhibition [6] of the same compound?
A: The activity change, negative = inhibition was inconclusive: -1.01%.

Q: What about the Potency [7] of the same compound?
A: The Potency was inconclusive [inhibitor, single point].

Q: Which results are given for `CS(=O)(=O)Nc1cccc(-c2nc(NCc3ccccc3)c3ccccc3n2)c1`?
A: Potency [3]: inconclusive [activator, partial curve]; activation [5]: inconclusive: -27.1%; activity change, negative = inhibition [6]: inconclusive: 7.23%; Potency [8]: inconclusive [falling, partial curve, poor fit]; Potency [7]: inactive

Q: Which results are given for `COc1[nH]c2ccc(F)cc2c1C(=O)OCC1CCN(CCNS(C)(=O)=O)CC1`?
A: Potency [9]: inconclusive [activator, full curve, poor fit]; Potency [10]: inactive; activity change, negative = inhibition [11]: inconclusive: 0.284% [phenotype inactive]; Potency [12]: inconclusive [inhibitor, partial curve, poor fit]; activity change, negative = inhibition [6]: inconclusive: 4% and inconclusive: -2.34%; Potency [13]: inactive; Potency [14]: active: 5.01 µM; Potency [15]: active: 11.7 µM; Potency [16]: inconclusive [inhibitor, partial curve, poor fit]; Potency [7]: inactive

Q: With `COCCn1c(=O)c(C)nc2cnc(N3CCN(C)CC3)nc21` as the compound, how does the activity change, negative = inhibition [1] read?
A: The activity change, negative = inhibition was inactive: -5.64%.

Q: And the Potency [6]?
A: The Potency was “inactive”.

Q: And the Potency [7]?
A: Its Potency is “inactive”.

Q: Which activity change, negative = inhibition [1] does the source give for `CN(C)C(=O)c1ccc(-c2nccc(NCc3cccnc3)n2)cc1` here?
A: Its activity change, negative = inhibition is inactive: -3.36%.

Q: What about the activity change, negative = inhibition [6] of the same compound?
A: Its activity change, negative = inhibition is inconclusive: 8.03%.

Q: And the Potency [7]?
A: The Potency was “inactive”.

Q: Which activity change, negative = inhibition [1] does the source give for `CN(C)c1ccc(-c2ccc3ncnc(NCc4ccccc4)c3c2)cc1` here?
A: Its activity change, negative = inhibition is inconclusive: -68.8% [inhibitor].

Q: And the activity change, negative = inhibition [17]?
A: The activity change, negative = inhibition was inconclusive: -32.1% [inhibitor].

Q: What about the Potency [9] of the same compound?
A: The Potency was inconclusive [inhibitor, partial curve].

Q: And the Potency [18]?
A: The Potency was inconclusive [activator, single point].

Q: And the Potency [5]?
A: The Potency was inconclusive [inhibitor, partial curve].

Q: What about the Potency [6] of the same compound?
A: The Potency was “inactive”.

Q: What about the Potency [16] of the same compound?
A: Its Potency is inconclusive [inhibitor, partial curve].

Q: And the Potency [7]?
A: The Potency was inconclusive [inhibitor, single point].

Q: With `COc1ccc(-c2nc3cnc(N4CCNCC4)nc3n(Cc3cccc(OC)c3)c2=O)cc1` as the compound, how does the activity change, negative = inhibition [1] read?
A: Its activity change, negative = inhibition is active: 109% [activator].

Q: What about the Potency [2] of the same compound?
A: Its Potency is inconclusive [decreasing].

Q: What about the activity change, negative = inhibition [17] of the same compound?
A: Its activity change, negative = inhibition is active: 101% [activator].

Q: And the activity, negative = inhibition [19]?
A: Its activity, negative = inhibition is inconclusive: 279% [activator].

Q: What about the Potency [9] of the same compound?
A: Its Potency is inconclusive [activator, partial curve].

Q: What about the Potency [5] of the same compound?
A: The Potency was inconclusive [fluorescent, side channel, partial curve].

Q: And the activity change, negative = inhibition [6]?
A: The activity change, negative = inhibition was inconclusive: -11.5%.

Q: What about the Potency [7] of the same compound?
A: The Potency was inconclusive [inhibitor, partial curve, poor fit].
